These are yes or no findings as the source states them, for the method shown. For some assays here: Binding seen in cells or lysates may run through a third protein. Some entries that bind do so weakly or less than the wild type. Values belong to the substance of their own block, whether it stands above or below them.
Tests used:
HA-GAS41 (human) [1] = target: HA-GAS41 (human) (UniProt O95619); experiment: co-IP; HEK293 co-transfected with HA-GAS41 and FLAG-RAP30; lysate on anti-HA agarose (HA-Tag IP/Co-IP kit); immunoblot with FLAG antibody
FLAG-RAP30 (human) = FLAG-RAP30 (human) (UniProt P13984); experiment: co-IP; HEK293 co-transfected with HA-GAS41 and FLAG-RAP30; lysate (150 mM NaCl, 50 mM Tris/HCl pH 8.0, 1% NP40) on FLAG-M2 agarose over night at 4°C; immunoblot
[2] = target: GST-RAP30 d1 (RAP74 binding domain, aa1-100) (human) (UniProt P13984); experiment: pull-down; GST-RAP30 full length or fragments d1-d3 on glutathione-sepharose 4B as bait, purified His-GAS41 (10-20 ug) as prey, over night at 4°C; immunoblot; both purified
HA-GAS41 (human) [3] = target: HA-GAS41 (human) (UniProt O95619); experiment: co-IP; HEK293 transfected with pSG5-HA-GAS41 or pSG5; immunoprecipitation of HA-GAS41; immunoblot for endogenous TBP and RNA polymerase II
[4] = target: GST-GAS41 (glioma amplified sequence 41, GST-tagged, full length) (human) (UniProt O95619); experiment: pull-down; GST-GAS41 sepharose incubated with HeLa nuclear extract, washed with PBS containing 0.5 M NaCl, 45 min at 4°C; immunoblot for RAP30; only the target purified
[5] = target: GST-GAS41 (glioma amplified sequence 41, GST-tagged, full length) (human) (UniProt O95619); experiment: pull-down; GST-GAS41 on glutathione-sepharose 4B, incubated with 250 ug HeLa nuclear extract (Promega) over night at 4°C; immunoblot with RAP30 and RAP74 antibodies; only the target purified
[6] = target: endogenous GAS41 (HeLa nuclear extract) (human (endogenous in HeLa)) (UniProt O95619); experiment: co-IP; HeLa nuclear extracts, polyclonal GAS41 antibodies or rabbit IgG isotype control on protein A-sepharose; immunoblot with RAP30 and RAP74 antibodies; all proteins endogenous
[7] = target: GST-GAS41 (glioma amplified sequence 41, GST-tagged, full length) (human) (UniProt O95619); experiment: pull-down; GST-GAS41 sepharose incubated with HeLa nuclear extract, washed with PBS then PBS with increasing NaCl (0.14 M up to 0.4 M), 45 min at 4°C; immunoblot for RAP30; only the target purified

Amino acid sequences for entries named in this document (tags omitted). A change or cut given only in a name is not applied to a line headed by its entry. Residues count along the entry.
UniProt O95619: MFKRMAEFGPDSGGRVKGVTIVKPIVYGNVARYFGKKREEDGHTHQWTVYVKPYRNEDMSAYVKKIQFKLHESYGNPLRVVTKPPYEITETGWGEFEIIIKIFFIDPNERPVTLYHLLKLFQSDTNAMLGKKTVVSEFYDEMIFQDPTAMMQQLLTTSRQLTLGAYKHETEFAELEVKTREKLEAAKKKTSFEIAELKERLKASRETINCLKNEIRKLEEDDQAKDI
UniProt P13984: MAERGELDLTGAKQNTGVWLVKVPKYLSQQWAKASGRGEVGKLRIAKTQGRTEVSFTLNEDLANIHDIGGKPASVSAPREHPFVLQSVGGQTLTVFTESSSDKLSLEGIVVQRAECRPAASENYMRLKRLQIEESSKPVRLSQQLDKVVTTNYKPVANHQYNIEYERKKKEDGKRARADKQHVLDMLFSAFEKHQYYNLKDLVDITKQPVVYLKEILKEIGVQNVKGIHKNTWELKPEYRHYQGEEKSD
GST-RAP30 d1 (RAP74 binding domain, aa1-100): residues 1-100 of P13984
UniProt P20226: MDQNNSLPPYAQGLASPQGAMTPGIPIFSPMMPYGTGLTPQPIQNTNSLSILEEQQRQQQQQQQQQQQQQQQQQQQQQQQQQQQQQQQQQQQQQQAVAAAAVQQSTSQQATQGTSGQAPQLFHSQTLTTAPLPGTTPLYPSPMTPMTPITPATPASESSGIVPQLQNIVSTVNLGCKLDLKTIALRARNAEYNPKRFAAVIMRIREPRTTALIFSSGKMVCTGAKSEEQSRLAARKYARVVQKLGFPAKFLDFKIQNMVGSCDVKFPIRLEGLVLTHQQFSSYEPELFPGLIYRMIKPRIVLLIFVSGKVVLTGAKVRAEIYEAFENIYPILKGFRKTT
UniProt P35269: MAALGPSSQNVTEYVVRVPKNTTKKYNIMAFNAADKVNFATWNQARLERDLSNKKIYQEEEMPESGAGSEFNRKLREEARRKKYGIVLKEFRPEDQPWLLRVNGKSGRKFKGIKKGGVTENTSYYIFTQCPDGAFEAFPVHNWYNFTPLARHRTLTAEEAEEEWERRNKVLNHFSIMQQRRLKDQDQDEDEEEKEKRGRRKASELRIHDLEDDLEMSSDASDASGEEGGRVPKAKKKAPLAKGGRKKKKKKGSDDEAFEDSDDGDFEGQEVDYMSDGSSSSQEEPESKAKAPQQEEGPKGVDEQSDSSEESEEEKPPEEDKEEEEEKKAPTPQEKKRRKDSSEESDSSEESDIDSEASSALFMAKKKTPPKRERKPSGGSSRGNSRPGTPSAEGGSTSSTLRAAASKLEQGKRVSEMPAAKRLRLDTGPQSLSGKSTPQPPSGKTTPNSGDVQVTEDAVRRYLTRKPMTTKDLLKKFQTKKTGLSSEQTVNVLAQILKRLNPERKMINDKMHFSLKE

Substance: TATA binding protein (TBP), endogenous (from UniProt P20226 1-339)
binding (HA-GAS41 (human) [3]): no binding

Substance: endogenous GAS41 (HEK293) (from UniProt O95619 1-227)
binding (FLAG-RAP30 (human)): binds

Substance: endogenous RAP74 (HeLa nuclear extract) (from UniProt P35269 1-517)
binding [5]: binds
binding [6]: binds

Second part, the substance after the results:

binding (HA-GAS41 (human) [1]): binds
Substance: FLAG-RAP30 (from UniProt P13984 1-249)

binding (FLAG-RAP30 (human)): binds
Substance: HA-GAS41 (from UniProt O95619 1-227)

binding [2]: no binding
Substance: His-GAS41 (from UniProt O95619 1-227)

binding [4]: binds weakly
binding [5]: binds
binding [6]: binds
binding [7]: binds
Substance: endogenous RAP30 (HeLa nuclear extract) (from UniProt P13984 1-249)
